Results taken from PubChem BioAssay AID1645882 (National Center for Advancing Translational Sciences (NCATS), 2021).
About 120 (0.75%) of roughly 16,000 compounds were called active. Inconclusive results (about 4%) are left out. Calls come from the whole dose curve; as a rule, active = well fitted inhibition curve with a large enough effect; inconclusive = small, poorly fitted or top-dose-only effect; inactive = no such curve, though single readings can be large or run the other way. This is one part of the list.

The compounds below were run against Rap guanine nucleotide exchange factor 3 (Homo sapiens) (UniProt O95398) (assay: Validation qHTS for antagonist of cAMP-regulated guanine nucleotide exchange factor 3 (EPAC1)). Conditions: EPAC1 Rap1B-BODIPY-GDP exchange, fluorescence; series mostly up to 150 µM; activity change, negative = inhibition: at the top concentration.
Chain of UniProt O95398 (O95398 whole entry, looked up): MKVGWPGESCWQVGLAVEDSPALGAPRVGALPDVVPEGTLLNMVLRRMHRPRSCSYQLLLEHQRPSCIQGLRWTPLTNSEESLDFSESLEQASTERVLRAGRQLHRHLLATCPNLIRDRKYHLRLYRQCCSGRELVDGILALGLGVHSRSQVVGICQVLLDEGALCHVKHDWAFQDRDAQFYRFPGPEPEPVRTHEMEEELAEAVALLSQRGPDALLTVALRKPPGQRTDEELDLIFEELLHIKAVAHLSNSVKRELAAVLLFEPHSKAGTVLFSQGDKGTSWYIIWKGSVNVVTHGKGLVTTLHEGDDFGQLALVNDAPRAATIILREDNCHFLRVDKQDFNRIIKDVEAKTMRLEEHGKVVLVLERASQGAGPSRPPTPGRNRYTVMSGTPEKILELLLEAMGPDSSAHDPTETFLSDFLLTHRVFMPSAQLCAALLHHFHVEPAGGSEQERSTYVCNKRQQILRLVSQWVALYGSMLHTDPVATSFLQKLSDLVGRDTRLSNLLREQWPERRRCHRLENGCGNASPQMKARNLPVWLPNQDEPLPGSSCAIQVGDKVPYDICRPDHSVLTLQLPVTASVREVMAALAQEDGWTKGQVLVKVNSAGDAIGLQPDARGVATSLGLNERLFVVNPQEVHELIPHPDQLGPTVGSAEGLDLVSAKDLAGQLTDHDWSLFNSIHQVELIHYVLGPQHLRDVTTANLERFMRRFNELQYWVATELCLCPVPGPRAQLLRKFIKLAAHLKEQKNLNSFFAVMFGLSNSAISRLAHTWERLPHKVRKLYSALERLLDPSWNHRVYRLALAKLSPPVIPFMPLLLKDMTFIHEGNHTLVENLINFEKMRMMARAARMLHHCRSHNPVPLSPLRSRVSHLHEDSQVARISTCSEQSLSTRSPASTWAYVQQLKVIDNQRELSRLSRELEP
Procedure, shortened: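 Nucleotide exchange followed as fluorescence loss when BODIPY-GDP leaves Rap1B (480 nm excitation, 540 nm emission), read at 5 min intervals over 30 min. Reaction: 100 nM EPAC1, 250 nM RAP1B-BODIPY-GDP, 50 uM GDP; ATA and DMSO define normalization.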
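Note: plate controls were DMSO for no effect and ATA control for full effect; nearly all actives have a fitted effect of over 75% in size.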

Activity change, negative = inhibition, inactive:
Cc1noc(C)c1-c1cc(Nc2ccc(F)cc2)ncn1 6.59%, N#Cc1cccc(-c2nc(NCc3ccccc3)c3ccccc3n2)c1 -8.25%, C=C(NC(=O)C(=C)NC(=O)c1csc(C2=NC3c4csc(n4)C4NC(=O)c5csc(n5)C(C(C)(O)C(C)O)NC(=O)C5CSC(=N5)C(=CC)NC(=O)C(C(C)O)NC(=O)c5csc(n5)C3(CC2)NC(=O)C(C)NC(=O)C(=C)NC(=O)C(C)NC(=O)C(C(C)CC)NC2C=Cc3c(C(C)O)cc(nc3C2O)C(=O)OC4C)n1)C(N)=O (stereo not drawn) 5.96%, O=C(c1cccnc1)C1CCCN(Cc2ccc3c(c2)CN(C(=O)c2cnccn2)CCO3)C1 (stereo not drawn) 16.1%, CN[C@H](CC(=O)O)C(=O)O, Cc1csc(SCC(=O)N2CCOc3ccc(C(O)C4CCCCC4)cc3C2)n1 (stereo not drawn) -7.38%, CCCCCCCC/C=C\C/C=C\C/C=C\CCCC(=O)O 9.96% [at 15.3 µM], CC(=O)NCCNc1ncncc1-c1ccccc1C(F)(F)F 4.85%, CN(Cc1ccco1)c1ccnc(-c2ccoc2)n1 15.8%, CCC1CN(CCNC(=O)c2scc3c2OCCO3)Cc2cc(OC)ccc2O1 (stereo not drawn) 22.2%, C/C(=C(/CCO)SSCC1CCCO1)N(C=O)Cc1cnc(C)nc1N (stereo not drawn), CN(C)C(=O)c1ccc(/C=C/c2ccnc3ccccc23)cc1 -15.1%, CCC1CN(CCNC(=O)c2cccc(C(=O)OC)c2)Cc2cc(OC)ccc2O1 (stereo not drawn) 5.67%, NS(=O)(=O)c1cc2c(cc1Cl)NC(C(Cl)Cl)NS2(=O)=O (stereo not drawn), C[C@@H]1/C(=N/O)CC2C[C@@H]1C2(C)C 18.2%, CN1CCN(C2Cc3ccccc3Sc3ccc(Cl)cc32)CC1 (stereo not drawn), CCC(=O)Nc1ccc(O)cc1 15.8%, COc1ccccc1CNc1ccnc(-c2ccccc2CN(C)C)n1 3.31%, C1CCN2C[C@H]3C[C@H](CN4CCCCC34)C2C1 (stereo partly drawn), CN[C@@H]1[C@H](O)[C@H](NC)[C@H]2O[C@@]3(O)C(=O)C[C@@H](C)O[C@H]3O[C@@H]2[C@H]1O, CCOC(=O)CN(C)C(=O)c1cnn(-c2ncc3c(n2)-c2ccccc2CCC3)c1C 5.18%, c1ccc(CNc2ccnc(-c3ccc4c(c3)OCO4)n2)cc1 8.61%, CC[C@H]1NC(=O)[C@@H](NC(=O)c2ncccc2O)[C@@H](C)OC(=O)[C@H](c2ccccc2)NC(=O)[C@@H]2CC(=O)CCN2C(=O)[C@H](Cc2ccccc2)N(C)C(=O)[C@@H]2CCCN2C1=O 18.3%, Cc1ccnc2ccc(N)cc12 18.2%, CCOC(=O)COc1ccc2c(=O)cc(-c3ccccc3)oc2c1, C/C(N[C@@H]1CSCC1O)=C1/C(=O)CC2[C@@H]1C2(C)C (stereo partly drawn) 8.88%, COc1c(CC(=O)c2cc3c(cc2O)OC(C)(C)C(O)C3)ccc2c1C=CC(C)(C)O2 (stereo not drawn) -15.3%, CC(C)/C(O)=C1/C(=O)OC(c2ccoc2)[C@@]2(C)C(O)C(O)[C@@]34OC5(C)OC67CC(C)(C(O)[C@@]6(O)C(O)[C@@]3(O5)C12)C(CC(=O)O)[C@@]74C (stereo partly drawn) 9.26%, COc1cc2c(Nc3ccc(Br)cc3F)ncnc2cc1OCC1CCN(C)CC1 12.5%, Cc1noc(C)c1C(=O)N1CCC2(CCCN(C(=O)Nc3cccc(F)c3)C2)CC1 19.3%, CS(=O)(=O)N1CCC2(CCN(Cc3ccc(C#N)cc3)CC2)CC1 19%, CCCCCCCC/C=C\CCCCCCCC(=O)OC[C@H](CO)OC(C)=O 1.23% [at 15.3 µM], O=C(Nc1ccccc1)N1CCC2(CCNCC2)CC1 14%, CSc1cc2c(cc1C(F)(F)F)N(C(=O)Nc1cccnc1)CC2 6.12%, CCCCC 3%, c1cncc(CNc2ncncc2-c2ccoc2)c1 9.34%, C/C(=C\c1ccco1)CN1CCOc2ccc(CN3CCC(Oc4cccnc4)CC3)cc2C1 10.8%, CC1(C)OC[C@@H]2O[C@@]3(C(=O)O)OC(C)(C)O[C@H]3[C@@H]2O1 6.31%, CO[C@H]1[C@H](NC(=O)C(C)C)c2ccccc2C12CCN(Cc1c(C)nn(C)c1Cl)CC2 10%, CCn1c(-c2ccccc2F)nc2cc(C(=O)NCC3CCOCC3)cc(NC(C)=O)c21 16.5%, CCCCC/C=C\C/C=C\C/C=C\C=C\[C@@H](O)CCCC(=O)O 25.8% [at 1.57 µM], COc1c2c(cc3c1C(NC(N)=O)[N+](C)(C)CC3)OCO2 (stereo not drawn) 16.2%, CC1=C(C(=O)OCc2ccccc2)N2C(=O)[C@@H](NC(=O)COc3ccccc3)[C@H]2SC1 -6.58%, CCCCCCCCCCCCCCC[C@H](O)[C@@H](N)CO, COc1ccc(Oc2ncc3ncc(=O)n(Cc4cccc(OC)c4)c3n2)cc1 -8.12%, COC(=O)CCC(C)C1CCC2C3C(O)C[C@@H]4CC(O)CC[C@@]4(C)C3CC(O)[C@]12C (stereo partly drawn) 4.95%, O=S1(=O)CCOCCCN1Cc1ccccc1Br 13.6%, CC[C@@H]1C(=O)[C@H](Cc2ccccc2)[C@H]2CCCC(=O)N3CC[C@@H]1[C@@H]23 5.86%, COc1ccccc1-c1ccnc(-n2ncc(C(=O)N(C)C(C)c3ccon3)c2C2CC2)n1 (stereo not drawn) 10.7%, Cc1cccc(CNC(=O)c2cnn(-c3nccc(-c4ccccc4C(F)(F)F)n3)c2C)n1 -1.18%, COc1ccc(NC(=O)N2CC[C@@]3(CCCN(C(=O)c4ccco4)C3)C2)cc1 19.7%, Cc1noc(C)c1C(=O)N1CCC2(CCN(C(=O)NC(C)C)CC2)CC1 10.8%, Cc1cnc(CNc2cc(-c3ccoc3)ncn2)cn1 23.8%, COc1cc(C)c(CN2CCC3(CCC(CNC(=O)c4ccnn4C)O3)CC2)cc1C (stereo not drawn) 0.511%, O=C(c1cnccn1)N1CCC[C@@]2(CCN(Cc3nccs3)C2)C1 15.7%, Fc1ccc(CN(C2=NCCN2)c2c(Cl)cccc2Cl)cc1 -10.1% [at 75.8 µM], CC(=O)Nc1ccc(/C=C/c2ccccn2)cc1 11.3%, O=c1c(CCc2ccccc2)nc2cnc(N3CCNCC3)nc2n1Cc1cccs1 11.1%, CN1C(=O)c2ccccc2C1=O 21.3% [at 320 µM], IC(I)I 10.6%, COc1ccccc1-c1ccc2ncnc(N(C)Cc3ccco3)c2c1 -22%, O=C(O)c1nc2cc(Cl)c(Cl)cc2[nH]c1=O 15.8%, Cn1c(SCC2CCCO2)nnc1C1CCN(Cc2ccc(-c3cccc(Cl)c3)o2)CC1 (stereo not drawn) 17.5%
